# Results reported in PubChem BioAssay AID588855 (National Center for Advancing Translational Sciences (NCATS), 2011).
# “And” between values parts separate entries of the source, which are not always exact repeats. Equal entries are not always repeated. About 5,000 (1.2%) of roughly 410,000 compounds were called active. The inconclusive results got no clear call from the source; some entries with a clear call stand among them for comparison. Calls follow the shape of the dose curve; as a rule, active = well fitted inhibition curve with a large enough effect; inconclusive = small, poorly fitted or top-dose-only effect; inactive = no such curve, though single readings can be large or run the other way. Where the call is inconclusive, the potency comes from a doubtful curve fit.
# Test: qHTS for Inhibitors of TGF-b; also: nearly all actives have a fitted effect of over 65% in size
# Details: HepG2 CAGA-GFP TGF-b/SMAD3 reporter, GFP fluorescence, 18 h, TGF-beta stimulated, 500 pg/mL final; series mostly up to 46.1 µM
# Method in brief: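 Cell-based qHTS in HEPG2 carrying a CAGA-GFP Smad reporter; compounds added before 500 pg/mL final TGF-beta, 18 h incubation at 37 degrees C, GFP fluorescence quantified per cell by imaging cytometry.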
# Potency is read from the fitted curve at half-maximal effect; tags tell the direction and shape of the fitted curve.
row,Compound,Potency
1,CCc1ccc2[nH]cc(S(=O)(=O)c3ccc(C(C)C)cc3)c(=O)c2c1,inactive
2,COc1cc2c(cc1OC)C(c1c(Cl)cccc1Cl)=NCC2,"inconclusive: 7.94 µM [inhibitor, partial curve]"
3,Cc1ccc(C(=O)C2CCN(CC(=O)Nc3ccc4c(c3)OCCO4)CC2)cc1,inactive
4,O=C(NNC(=O)c1cccc(S(=O)(=O)N2CCc3ccccc32)c1)c1ccccc1,inactive
5,CCc1nnc(NC(=O)CCS(=O)(=O)c2ccccc2)s1,"inconclusive: 12.6 µM [inhibitor, single point]"
6,C=CCC[C@@H](Cc1ccc(F)cc1)C(=O)OCCNC(=O)[C@@H](CC=C)CC(=O)N(CCO)Cc1ccccc1,"inconclusive: 11.2 µM [inhibitor, partial curve, poor fit]"
7,COc1cc2cc(C#N)c(SCC(=O)OC(C)C)nc2cc1OC,inactive
8,C[C@H]1Oc2ccccc2C(=O)C1C(=O)c1ccccc1 (stereo not given in full),inactive
9,CCN(C[C@H]1N[C@@](Cc2ccccc2)(C(=O)OC)[C@H]2C(=O)N(C)C(=O)[C@@H]12)C(=O)Nc1ccc(Cl)cc1,"inconclusive: 20 µM [inhibitor, single point]"
10,CCOC(=O)c1c(NC(=O)CS(=O)(=O)c2cn(CC)c3ccccc23)sc2c1CCCCC2,"inconclusive: 35.5 µM [inhibitor, single point]"
11,CCN(CC)C(=O)[C@H]1C[C@H](CC(=O)NC/C=C(\C)CCC=C(C)C)C(=O)N2CCc3c([nH]c4ccc(Cl)cc34)[C@]12C,"inconclusive: 35.5 µM [inhibitor, single point]"
12,CCOc1ccc(-c2cn3c(n2)sc2cc(C(=O)NCCCN4CCCCCC4)ccc23)cc1,"inconclusive: 35.5 µM [inhibitor, single point]"
13,COc1ccc(Nc2nc(C(=O)NCc3ccco3)cs2)cc1,"inconclusive: 35.5 µM [inhibitor, single point]"
14,CCOC(=O)c1sc(-c2cccc(C(F)(F)F)c2)nc1O,inactive
15,CCc1ccc2oc(C(=O)NCC(c3ccc(OC)cc3)N3CCCCC3)c(C)c2c1 (stereo not given),inactive
16,COc1cccc(NCc2cc3c(C(C)(C)C)nn(-c4ccccc4)c3[nH]c2=O)c1,"inconclusive: 35.5 µM [inhibitor, single point]"
17,Cc1cc(NC(=O)C2CCN(S(=O)(=O)c3c(C)noc3C)CC2)ccc1Br,"inconclusive: 11.2 µM [inhibitor, partial curve, poor fit]"
18,Cc1cc(C)c2nc(N(Cc3cccnc3)C(=O)CCS(=O)(=O)c3ccccc3)sc2c1,"inconclusive: 1.78 µM [inhibitor, partial curve]"
19,CCCN1CCN(CCCNC(=O)c2ccc3nc(N4CCC(C)CC4)sc3c2)CC1,inactive
20,CC(=O)c1cnc(Nc2cccc(C)c2)s1,inactive
21,CC1CCC(C(C)C)C(OC(=O)COC(=O)c2cccn2C)C1 (stereo not given),inactive
22,O=C(CCl)Nc1ccc(Sc2ccc(NC(=O)CCl)cc2)cc1,active: 10 µM

row,Compound,Potency
1,O=S(=O)(c1cccc(COc2ccc(Cl)cc2Cl)c1)N1CCOCC1,"inconclusive: 7.08 µM [inhibitor, partial curve, poor fit]"
2,C/C(=N\NC(=O)c1ccc(-c2ccccc2)cc1)C1C(=O)c2ccccc2C1=O,active: 12.6 µM
3,COc1ccc(NC(=O)CC2CC3CCC2C3)cc1S(=O)(=O)N1CCOCC1 (stereo not given),"inconclusive: 15.8 µM [inhibitor, partial curve, poor fit]"
4,CCC1Nc2ncnc(N3CCN(c4ccccc4)CC3)c2N(Cc2ccc(C)cc2)C1=O (stereo not given),inactive
5,c1ccc(CN(Cc2ccccc2)c2ncnc3c2nnn3Cc2ccccc2)cc1,inactive
6,CC(C)CN(CC(C)C)S(=O)(=O)N1CCC(C(=O)NCCc2ccc(Cl)cc2)CC1,"inconclusive: 35.5 µM [inhibitor, single point]"
7,O=C1OCCN1C(=O)[C@H]1[C@H](c2ccc([N+](=O)[O-])cc2)C(c2cccc(Cl)c2)=NN1c1ccccc1,"inconclusive: 0.794 µM [inhibitor, full curve]"
8,NC(=O)c1ccsc1NC(=O)COC(=O)c1ccccc1F,inactive
9,O=C(N/N=C/c1ccc(Br)o1)c1ccc2c(c1)OCCO2,inactive
10,CCCN(CCC)Cc1cc2ccccc2c2c1COC2,inactive
11,Cc1cc(C)nc(NS(=O)(=O)c2ccc(NC(=O)c3cc(-c4ccccc4)nc4ccccc34)cc2)n1,"inconclusive: 22.4 µM [inhibitor, single point]"
12,Cc1cc(C)n(-c2nc(N(c3ccccc3)c3ccccc3)nc(-n3nc(C)cc3C)n2)n1,"inconclusive: 3.16 µM [inhibitor, partial curve, poor fit]"
13,Cc1cc(C)nc(N/N=C2/CCCC/C2=C\c2ccccc2)n1,"inconclusive: 8.91 µM [inhibitor, partial curve, poor fit]"
14,Cc1cc(C(=O)NC2CCCc3c2cnn3-c2ccccc2F)nc(C)n1 (stereo not given),"inconclusive: 1.41 µM [inhibitor, partial curve]"
15,O=C(Cc1ccccc1)Nc1sc2c(c1C(=O)Nc1ccccc1Cl)CCCCC2,"inconclusive: 7.08 µM [inhibitor, partial curve, poor fit]"
16,COc1ccc(NC(=S)NC(NC(=O)/C=C/c2ccccc2)C(Cl)(Cl)Cl)cc1 (stereo not given),"inconclusive: 25.1 µM [inhibitor, single point]"
17,Cn1c(=O)oc2cc(C(=O)c3ccccc3)ccc21,"inconclusive: 1.58 µM [inhibitor, partial curve, poor fit]"
18,Cc1ccc(CS(=O)(=O)c2ccc(C(=O)N3CCN(c4ccccn4)CC3)cc2[N+](=O)[O-])cc1,"inconclusive: 17.8 µM [inhibitor, single point]"
19,Cc1cc(C)n(CC(=O)N/N=C/c2ccc([N+](=O)[O-])s2)n1,"inconclusive: 17.8 µM [inhibitor, single point]"
20,Cn1cccc1/C=N/N1CCN(Cc2ccc(Cl)cc2)CC1,"inconclusive: 25.1 µM [inhibitor, single point]"
21,N#CC1=C(N)Oc2c(oc(CO)cc2=O)C1c1ccsc1 (stereo not given),inactive
22,COc1ccc(-n2c(N)c(C(=O)NCc3ccco3)c3nc4ccccc4nc32)c(OC)c1,"inconclusive: 7.08 µM [inhibitor, partial curve, poor fit]"

row,Compound,Potency
1,COc1ccc(CNC(=O)COC(=O)C2CCC(C(C)(C)C)CC2)cc1 (stereo not given),"inconclusive: 10 µM [inhibitor, partial curve, poor fit]"
2,O=C(Nc1cc(-c2ccccc2)sc1C(=O)O)c1cccc(F)c1,"inconclusive: 28.2 µM [inhibitor, single point] and inconclusive: 11.2 µM [inhibitor, partial curve]"
3,O=C(N/N=C/c1sc(=O)n(Cc2ccc(Br)cc2)c1Cl)c1ccco1,"inconclusive: 11.2 µM [inhibitor, partial curve, poor fit]"
4,CCOc1ccc(-n2c(SCC(=O)Nc3cc(C)ccc3C)nc3c([nH]c4ccccc43)c2=O)cc1,inactive
5,Cc1cccc(-c2cc3nc4c(c(N5CCCC(O)C5)n3n2)CCC4)c1 (stereo not given),"inconclusive: 11.2 µM [inhibitor, partial curve]"
6,CCC(C)n1c(=O)c2sccc2n2c(CCCC(=O)N3CCN(c4ccccc4)CC3)nnc12 (stereo not given),"inconclusive: 22.4 µM [inhibitor, partial curve, poor fit]"
7,O=C(C(NS(=O)(=O)c1cccc2nsnc12)c1ccccc1)N1CCN(c2ccccn2)CC1 (stereo not given),"inconclusive: 6.31 µM [inhibitor, single point]"
8,CCc1nc2ccc(C(=O)N3CCN(c4ccc([N+](=O)[O-])cc4)CC3)cc2nc1CC,"inconclusive: 22.4 µM [inhibitor, single point]"
9,S=C(c1ccc(-c2cccc(Cl)c2)o1)N1CCCCC1,"inconclusive: 35.5 µM [inhibitor, single point]"
10,CN1CCN(Cc2nc3ccccc3c(=O)n2Cc2nc(-c3ccc([N+](=O)[O-])cc3)cs2)CC1,active: 15.8 µM
11,O=C(CSc1nc2ccccc2s1)NNC(=S)Nc1ccc(Br)cc1,"inconclusive: 2.82 µM [inhibitor, partial curve, poor fit]"
12,O=C(CSc1nnc(-c2ccc3c(c2)OCO3)o1)Oc1ccccc1,"inconclusive: 6.31 µM [inhibitor, single point]"
13,COc1ccccc1NC(=O)c1cc2c(=O)n(C)c3ccccc3c2n1C,"inconclusive: 11.2 µM [inhibitor, single point]"
14,CCOc1cc(C2c3c(-c4cc(C)ccc4O)n[nH]c3C(=O)N2CCCOC(C)C)ccc1O (stereo not given),active: 12.6 µM
15,CC(=O)Nc1ccc(C2=NNC(=NCC3CCCO3)SC2)cc1 (stereo not given),inactive
16,CCOC(=O)c1c(-c2ccccc2)csc1NC(=O)C(C)NCCCN1CCOCC1 (stereo not given),inactive
17,CCN(CC(=O)NCc1ccc(Cl)cc1)C(=O)CSc1ccccc1F,"inconclusive: 0.355 µM [inhibitor, full curve, poor fit]"
18,CCOc1ccccc1CNC(=O)c1sc2ncccc2c1-n1cccc1,"inconclusive: 17.8 µM [inhibitor, single point]"
19,CCn1c2ccccc2c2cc(/C=N/n3c(C)nnc3C)ccc21,"inconclusive: 35.5 µM [inhibitor, single point]"
20,Cc1ccc(CN(C(=O)c2ccc(C(C)(C)C)cc2)c2ccccn2)o1,"inconclusive: 3.98 µM [inhibitor, partial curve, poor fit]"
21,Cc1ccc(S(=O)(=O)N2CCC(C(=O)N3CCN(Cc4ccccc4)CC3)CC2)cc1,inactive
